The record followed here is the supplement of paper PMC12217912.

The labels stand for the following.
B1: TEV protease; numbered along this chain (parent)
chain: MGESLFKGPRDYNPISSSICHLTNESDGHTTSLYGIGFGPFIITNKHLFRRNNGTLVVQSLHGVFKVKDTTTLQQHLVDGRDMIIIRMPKDFPPFPQKLKFREPQREERICLVTTNFQTKSMSSMVSDTSCTFPSGDGIFWKHWIQTKDGQCGSPLVSTRDGFIVGIHSASNFTNTNNYFTSVPKNFMELLTNQEAQQWVSGWRLNADSVLWGGHKVFMVKPEEPFQPVKEATQL

The test covers variants of B1. In words: raw area under fraction-flipped curve 0-4 h after induction (AUC4h, not background-subtracted), DNA-recorder readout of cleavage of the substrate (dimensionless); higher = more cleavage of the substrate by the protease variant. Conditions: temperature: 34 °C; time window: 0-4 h after rhamnose induction. As to the method:
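In vivo DNA recorder in E. coli TOP10(DE3) ΔrhaA at 34 °C. Each TEVp single-site mutant (parent TEVp 0) is paired with a single-site variant of the 7-mer TEVs (canonical ENLYFQ|S). The substrate sits between flexible linkers in a Bxb1-sfGFP-TEVs-SsrA fusion, so cleavage stabilises Bxb1 and speeds flipping of a recombination array, read by NGS. The value is the raw area under the fraction-flipped curve over 0-4 h after rhamnose induction (AUC4h), with ≥20 reads per time point. It is not background-subtracted; inactive controls average about 0.047.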

The other results are listed elsewhere or left out. The full chains were built here from the parent and the listed change. Values near 0.05 are background.
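Note: Bxb1 expression induced with 0.2% (w/v) L-rhamnose at OD600 near 0.5, cultures sampled hourly, flipped fraction per protease–substrate barcode pair counted by paired-end Illumina sequencing.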

Consider MGESLFKGPRDYNPISSSICHLTNESDGHTTSLYGIGFGPFIITNKHLFRRNNGWLVVQSLHGVFKVKDTTTLQQHLVDGRDMIIIRMPKDFPPFPQKLKFREPQREERICLVTTNFQTKSMSSMVSDTSCTFPSGDGIFWKHWIQTKDGQCGSPLVSTRDGFIVGIHSASNFTNTNNYFTSVPKNFMELLTNQEAQQWVSGWRLNADSVLWGGHKVFMVKPEEPFQPVKEATQL [T55W], for which the “area with substrate ENLAFQS” value came out at 0.071, the “area with substrate ENLCFQS” value is 0.0647, the “area with substrate ENLDFQS” value was 0.0628 and the “area with substrate ENLEFQS” value stood at 0.0314. For the same variant, the “area with substrate ENLFFQS” value amounted to 0.0769, the “area with substrate ENLHFQS” value worked out at 0.0608, the “area with substrate ENLIFQS” value is 0.0777 and the “area with substrate ENLKFQS” value was 0.075. The “area with substrate ENLNFQS” value came to 0.0548, the “area with substrate ENLQFQS” value was found to be 0.0644, the “area with substrate ENLRFQS” value is 0.057 and the “area with substrate ENLSFQS” value stood at 0.0559. The “area with substrate ENLVFQS” value worked out at 0.0505 and the “area with substrate ENLWFQS” value was determined as 0.0693.

Turning to MGESLFKGPRDYNPISSSICHLTNESDGHTTSLYGIGFGPYIITNKHLFRRNNGTLVVQSLHGVFKVKDTTTLQQHLVDGRDMIIIRMPKDFPPFPQKLKFREPQREERICLVTTNFQTKSMSSMVSDTSCTFPSGDGIFWKHWIQTKDGQCGSPLVSTRDGFIVGIHSASNFTNTNNYFTSVPKNFMELLTNQEAQQWVSGWRLNADSVLWGGHKVFMVKPEEPFQPVKEATQL [F41Y], the “area with substrate ENLAFQS” value amounted to 0.0529, the “area with substrate ENLCFQS” value came to 0.0836, the “area with substrate ENLDFQS” value was found to be 0.0697 and the “area with substrate ENLEFQS” value stood at 0.0614. The “area with substrate ENLFFQS” value came to 0.0702, the “area with substrate ENLIFQS” value worked out at 0.0821, the “area with substrate ENLKFQS” value turned out to be 0.0711 and the “area with substrate ENLLFQS” value turned out to be 0.0779. Moreover, the “area with substrate ENLNFQS” value was found to be 0.0662, the “area with substrate ENLPFQS” value came out at 0.0587, the “area with substrate ENLQFQS” value was 0.0726 and the “area with substrate ENLRFQS” value was found to be 0.085. The “area with substrate ENLSFQS” value was found to be 0.0453, the “area with substrate ENLTFQS” value was determined as 0.0548 and the “area with substrate ENLVFQS” value was found to be 0.0789.

Regarding MGESLFKGPRDYNPISSSICHLTNESDGHTTSLYGIGFGPEIITNKHLFRRNNGTLVVQSLHGVFKVKDTTTLQQHLVDGRDMIIIRMPKDFPPFPQKLKFREPQREERICLVTTNFQTKSMSSMVSDTSCTFPSGDGIFWKHWIQTKDGQCGSPLVSTRDGFIVGIHSASNFTNTNNYFTSVPKNFMELLTNQEAQQWVSGWRLNADSVLWGGHKVFMVKPEEPFQPVKEATQL [F41E], the “area with substrate ENLAFQS” value worked out at 0.0645, the “area with substrate ENLCFQS” value is 0.0464, the “area with substrate ENLDFQS” value is 0.0565 and the “area with substrate ENLFFQS” value came to 0.0472. In addition, the “area with substrate ENLHFQS” value was 0.0988, the “area with substrate ENLKFQS” value came to 0.0489, the “area with substrate ENLNFQS” value was determined as 0.0613 and the “area with substrate ENLPFQS” value worked out at 0.0626. Further, the “area with substrate ENLQFQS” value is 0.0786, the “area with substrate ENLSFQS” value is 0.0418 and the “area with substrate ENLWFQS” value was determined as 0.0425.

For MGESLFKGPRDYNPISSSICHLTNESDGHTTSLYGIGFGPFIITNKHLFRRNHGTLVVQSLHGVFKVKDTTTLQQHLVDGRDMIIIRMPKDFPPFPQKLKFREPQREERICLVTTNFQTKSMSSMVSDTSCTFPSGDGIFWKHWIQTKDGQCGSPLVSTRDGFIVGIHSASNFTNTNNYFTSVPKNFMELLTNQEAQQWVSGWRLNADSVLWGGHKVFMVKPEEPFQPVKEATQL [N53H], the “area with substrate ENLAFQS” value came out at 0.0641, the “area with substrate ENLCFQS” value amounted to 0.0586, the “area with substrate ENLDFQS” value was determined as 0.0828 and the “area with substrate ENLEFQS” value was found to be 0.0216. Besides, the “area with substrate ENLFFQS” value is 0.0761, the “area with substrate ENLHFQS” value turned out to be 0.0626, the “area with substrate ENLIFQS” value was 0.0635 and the “area with substrate ENLKFQS” value worked out at 0.0728. In addition, the “area with substrate ENLLFQS” value was found to be 0.0551, the “area with substrate ENLMFQS” value amounted to 0.0539, the “area with substrate ENLNFQS” value was 0.0649 and the “area with substrate ENLPFQS” value came to 0.0609. Further, the “area with substrate ENLRFQS” value was determined as 0.0589 and the “area with substrate ENLWFQS” value amounted to 0.0648.

Turning to MGESLFKGPRDYNPISSSICHLTNESDGHTTSLYGIGFGPFIITNKHLFRRNKGTLVVQSLHGVFKVKDTTTLQQHLVDGRDMIIIRMPKDFPPFPQKLKFREPQREERICLVTTNFQTKSMSSMVSDTSCTFPSGDGIFWKHWIQTKDGQCGSPLVSTRDGFIVGIHSASNFTNTNNYFTSVPKNFMELLTNQEAQQWVSGWRLNADSVLWGGHKVFMVKPEEPFQPVKEATQL [N53K], the “area with substrate ENLAFQS” value is 0.0848, the “area with substrate ENLCFQS” value was found to be 0.0897, the “area with substrate ENLDFQS” value came to 0.062 and the “area with substrate ENLGFQS” value came out at 0.0625. Further, the “area with substrate ENLHFQS” value was determined as 0.07, the “area with substrate ENLKFQS” value amounted to 0.0677, the “area with substrate ENLLFQS” value was determined as 0.0864 and the “area with substrate ENLMFQS” value came to 0.0742. The “area with substrate ENLNFQS” value is 0.0618, the “area with substrate ENLPFQS” value stood at 0.0705, the “area with substrate ENLQFQS” value was 0.0643 and the “area with substrate ENLRFQS” value amounted to 0.0631. Besides, the “area with substrate ENLSFQS” value is 0.076, the “area with substrate ENLTFQS” value was found to be 0.0614 and the “area with substrate ENLVFQS” value amounted to 0.0934.

Consider MGESLFKGPRDYNPISSSICHLTNESDGHTTSLYGIGFGPFIITNKHLFTRNNGTLVVQSLHGVFKVKDTTTLQQHLVDGRDMIIIRMPKDFPPFPQKLKFREPQREERICLVTTNFQTKSMSSMVSDTSCTFPSGDGIFWKHWIQTKDGQCGSPLVSTRDGFIVGIHSASNFTNTNNYFTSVPKNFMELLTNQEAQQWVSGWRLNADSVLWGGHKVFMVKPEEPFQPVKEATQL [R50T], for which the “area with substrate ENLAFQS” value came out at 0.0775, the “area with substrate ENLCFQS” value worked out at 0.0468, the “area with substrate ENLDFQS” value was found to be 0.0656 and the “area with substrate ENLEFQS” value was determined as 0.0587. The “area with substrate ENLFFQS” value is 0.0908, the “area with substrate ENLHFQS” value amounted to 0.0588, the “area with substrate ENLIFQS” value amounted to 0.0672 and the “area with substrate ENLKFQS” value turned out to be 0.0829. Moreover, the “area with substrate ENLLFQS” value is 0.0457, the “area with substrate ENLNFQS” value was 0.0681, the “area with substrate ENLPFQS” value is 0.0603 and the “area with substrate ENLRFQS” value worked out at 0.0726. Moreover, the “area with substrate ENLSFQS” value was found to be 0.0572, the “area with substrate ENLVFQS” value turned out to be 0.0611 and the “area with substrate ENLWFQS” value is 0.0757.

MGESLFKGPRDYNPISSSICHLTNESDGHTTSLYGIGFGPFIITNKHLFSRNNGTLVVQSLHGVFKVKDTTTLQQHLVDGRDMIIIRMPKDFPPFPQKLKFREPQREERICLVTTNFQTKSMSSMVSDTSCTFPSGDGIFWKHWIQTKDGQCGSPLVSTRDGFIVGIHSASNFTNTNNYFTSVPKNFMELLTNQEAQQWVSGWRLNADSVLWGGHKVFMVKPEEPFQPVKEATQL [R50S]: the “area with substrate ENLAFQS” value worked out at 0.0569, the “area with substrate ENLCFQS” value stood at 0.0702, the “area with substrate ENLDFQS” value was found to be 0.0573 and the “area with substrate ENLEFQS” value was 0.0707. The “area with substrate ENLFFQS” value turned out to be 0.0826, the “area with substrate ENLKFQS” value is 0.0828, the “area with substrate ENLNFQS” value was 0.0485 and the “area with substrate ENLPFQS” value came out at 0.0593.

As for MGESLFKGPRDYNPISSSICHLTNESDGHTTSLYGIGFGPFIITNKHLFARNNGTLVVQSLHGVFKVKDTTTLQQHLVDGRDMIIIRMPKDFPPFPQKLKFREPQREERICLVTTNFQTKSMSSMVSDTSCTFPSGDGIFWKHWIQTKDGQCGSPLVSTRDGFIVGIHSASNFTNTNNYFTSVPKNFMELLTNQEAQQWVSGWRLNADSVLWGGHKVFMVKPEEPFQPVKEATQL [R50A], the “area with substrate ENLAFQS” value worked out at 0.0747, the “area with substrate ENLDFQS” value came out at 0.062, the “area with substrate ENLEFQS” value stood at 0.0593 and the “area with substrate ENLFFQS” value is 0.0917. For the same variant, the “area with substrate ENLHFQS” value came to 0.0665, the “area with substrate ENLIFQS” value turned out to be 0.0774, the “area with substrate ENLKFQS” value worked out at 0.0783 and the “area with substrate ENLLFQS” value worked out at 0.0576. The “area with substrate ENLNFQS” value stood at 0.067, the “area with substrate ENLPFQS” value was 0.0561, the “area with substrate ENLQFQS” value was found to be 0.0783 and the “area with substrate ENLRFQS” value was found to be 0.0707. The “area with substrate ENLSFQS” value stood at 0.0522 and the “area with substrate ENLWFQS” value came to 0.0769.

For the variant MGESLFKGPRDYNPISSSICHLTNESDGHTTSLDGIGFGPFIITNKHLFRRNNGTLVVQSLHGVFKVKDTTTLQQHLVDGRDMIIIRMPKDFPPFPQKLKFREPQREERICLVTTNFQTKSMSSMVSDTSCTFPSGDGIFWKHWIQTKDGQCGSPLVSTRDGFIVGIHSASNFTNTNNYFTSVPKNFMELLTNQEAQQWVSGWRLNADSVLWGGHKVFMVKPEEPFQPVKEATQL [Y34D], the “area with substrate ENLAFQS” value was found to be 0.0661, the “area with substrate ENLDFQS” value amounted to 0.0618, the “area with substrate ENLKFQS” value was 0.0525 and the “area with substrate ENLNFQS” value is 0.0624. Also, the “area with substrate ENLPFQS” value worked out at 0.0584, the “area with substrate ENLRFQS” value is 0.0875 and the “area with substrate ENLWFQS” value was 0.0606.
